PubChem BioAssay AID1508624 (National Center for Advancing Translational Sciences (NCATS), 2021)
Screen size: about 48,000 compounds; about 120 (0.25%) were called active. Inconclusive results (about 4%) are left out. Calls come from the whole dose curve; as a rule, active = well fitted activation curve with a large enough effect; inconclusive = small, poorly fitted or top-dose-only effect, or another doubt; inactive = no such curve, though single readings can be large or run the other way. Some of the results follow.

Assay: Primary qHTS for Identification of Small Molecule Activators of Huntingtin-Antisense Promoter Activity; note: nearly all actives have a fitted effect of over 55% in size
Details: HEK293 HTT-AS promoter firefly luciferase reporter, 24 h; series mostly up to 57.5 µM; activity change, positive = activation: at the top concentration
Outline: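 Firefly luciferase signal from promoter-reporter HEK293 cells was scaled between vehicle (0%) and zero RLU (-100%). Compounds were tested at final concentrations of up to 57.5 uM over 24 h at 37 degrees C. PTC124 at 50 uM final served as control inhibitor.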

Activity change, positive = activation, inactive:
CC1N=C2c3ccccc3N=C(SCC(=O)NCCc3ccccc3)N2C1=O (stereo unspecified) 8.21%
COc1ccc(Nc2c3c(nc4ccc(NC(=O)c5ccc(F)cc5)cc24)CCCC3)cc1OC -27.9%
O[C@@H](c1cc(C(F)(F)F)nc2c(C(F)(F)F)cccc12)[C@H]1CCCCN1 -27%
Cc1ccc(-n2nc3c(=O)n(C(C)C(=O)NCc4ccco4)nc(C)c3c2C)cc1 (stereo unspecified) -26.5%
NS(=O)(=O)c1cc2c(cc1C(F)(F)F)NC(Cc1ccccc1)NS2(=O)=O (stereo unspecified) -4.29%
Cc1ccc(Cl)cc1N1CCN(CCCNC(=O)c2ccc3nc(N4CCCCC4)sc3c2)CC1 -36.3%
O=C(NC1(C(F)(F)F)NC(=O)N(CCc2ccccc2)C1=O)c1ccc(Cl)cc1 (stereo unspecified) -27.7%
CCn1ccc2c(OCC(=O)Nc3ccccc3C(F)(F)F)cccc2c1=O -34.5%
COC(=O)CC1Oc2ccc(Cl)cc2-n2cc(-c3ccccc3)nc21 (stereo unspecified) -21.3%
Oc1c(C(c2ccccc2)N2CCC(O)CC2)sc2nc(-c3ccco3)nn12 (stereo unspecified) -15.5%
COc1ccc(-c2c(C)nn3c(C(F)(F)F)cc(-c4ccccc4)nc23)cc1 -7%
COc1ccc(OC)c(NC(=O)c2cc(C3CC3)nc3c2c(C)nn3-c2ccc(C)cc2)c1 -18.7%
O=C(Cn1cc(SCc2ccccc2F)c2ccccc21)N1CCCCC1 17.8%
Cc1cc(C)cc(NC(=O)Cc2c(C(=O)O)c(C)cn2C)c1 -8.26%
O=C(NCc1ccco1)c1ccc2c(c1)N(Cc1c(F)cccc1Cl)C(=O)c1ccccc1S2 -28.5%
CCCCCCCCCCCCCCCCC(C(=O)O)C(O)(CC(=O)O)C(=O)O (stereo unspecified) -11.5%
COc1ccc(C(=O)NCc2ccc3c(c2)CCN3C(=O)c2ccc(C)cc2)cc1 -23.3%
CC(=O)c1cccc(NC(=O)C2CCN(S(=O)(=O)c3ccc4[nH]c(=O)ccc4c3)CC2)c1 -8.31%
Cc1ccc(CNC(=O)C2CCN(Cc3nc(-c4cccc(Br)c4)oc3C)CC2)cc1 -9.32%
CCOc1ccc(-n2c(=O)c3c4c(sc3n(CC(=O)NC(C)CC)c2=O)CCCC4)cc1 (stereo unspecified) -9.01%
Cc1cccc(-n2c(=O)c3ccccc3n(Cc3ccccc3)c2=O)c1 -26.9%
Cc1ccc(-n2nc3ccc(NC(=O)COc4ccccc4)cc3n2)cc1Cl -12.2%
CCc1cc2c(cc(C(=O)OC)n2Cc2nc(-c3ccc(C)cc3)oc2C)s1 17%
O=C(CSc1nc2c([nH]c3ccccc32)c(=O)n1-c1cccc(C(F)(F)F)c1)N1CCc2ccccc21 -15.4%
CCOc1ccc(N(CC)C(=O)c2nn(-c3ccc(OC)cc3)c(=O)c3c2c2ccccc2n3C)cc1 -12.8%
COc1cccc(N2CCN(C(=O)CCCCCn3c(=O)[nH]c4ccccc4c3=O)CC2)c1 -9.21%
COc1ccccc1CNC(=O)C1CCN(S(=O)(=O)c2ccc3c(c2)CCCN3C(C)=O)CC1 -15.7%
CC(C)c1ccc(NC(=O)CSc2nc3ccccc3nc2Cc2ccccc2)cc1 -10%
CCOc1ccccc1NC(=O)Cn1nnc(C(=O)NCc2ccc(F)cc2)c1N -8.59%
CN(C)CCNC(=O)C(=O)NCC(c1cccnc1)N1CCN(c2ccc(F)cc2)CC1 (stereo unspecified) -3.06%
COc1ccc(Cn2ccc3nc(C)c(C(=O)N4CCN(c5ccc(OC)cc5)CC4)cc3c2=O)cc1 -24.2%
Cc1ccc(S(=O)(=O)N(C)Cc2nc(-c3ccccc3)oc2C)cc1 -20.2%
CCc1nc2nc(C)c(NS(=O)(=O)c3ccc(C)cc3)c(=O)n2[nH]1 -7.99%
COc1ccc2c(c1)c1c(c(=O)n(-c3ccccc3C)c(=O)n1C)n2C -8.82%
CCN(CC)S(=O)(=O)c1cccc(C(=O)Nc2sc3c(c2C#N)CCC(C)C3)c1 (stereo unspecified) -35%
Cc1cc(C)c(S(=O)(=O)N2CCC(N3CCN(Cc4ccccc4)C(=O)C3=O)CC2)c(C)c1 8.85% [at 11.5 µM, percent change from vehicle, -100% = no light]
COc1ccc(-n2ncc(C(=O)N3CCN(c4cc(C)ccc4C)CC3)c2C2CCN(C(=O)OC(C)(C)C)CC2)cc1 -0.675%
CCN(CC)CCNC(=O)c1cn(CCOC)c(=O)c2c1c1ccccc1n2C -7.04%
COc1ccc(CNCc2c(C(=O)O)c(C)n(Cc3ccccc3C)c2C)c(OC)c1 -19.4%
COc1ccc(Nc2cc(C)c3cc(NC(=O)Cc4ccc(Cl)cc4)ccc3n2)cc1 -42%
CCCCNC(=O)C1CCN(c2nc3ccccc3nc2C(F)(F)F)CC1 -14.7%
Cc1nnc(NC(=O)CSc2nccn2Cc2ccc(Cl)cc2)s1 -18%
CCOC(=O)C1=C(C)NC(C)=C(C(=O)OC)C1c1cccc([N+](=O)[O-])c1 (stereo unspecified) -22.6%
Cc1nc2nc(NC(=O)CC(C)C)[nH]n2c(=O)c1Cc1ccccc1 3.44%
CCc1ccccc1NC(=O)Cc1ccc(NC(=O)N2CCCCc3ccccc32)cc1 -12.4%
CCS(=O)(=O)c1ncc(Cl)c(C(=O)Nc2c(C(=O)Nc3cccc(C)c3)oc3ccccc23)n1 23.5%
Cc1ccc(-c2c(C(=O)N3CCN(c4cc(Cl)ccc4C)CC3)oc(=O)c3ccccc23)cc1 -7.66%
COc1ccc(C)cc1NC(=O)c1cc2c(=O)n(Cc3cccnc3)ccc2nc1C -6.6%
COc1ccccc1N1CCN(C(CNC(=O)C(=O)NCc2ccc(F)cc2)c2cccnc2)CC1 (stereo unspecified) -78.4%
O=C(Nc1ccc(F)c(Cl)c1)N1CCC2(CC1)Oc1ccccc1C(=O)N2Cc1ccccc1F -6.52%
CCc1ccc(C(=O)N2CCC(c3nc(-c4ccc(S(=O)(=O)N5CCCC5)cc4)no3)CC2)cc1 -19.5%
O=C(O)c1ccc(CNCc2ccccc2Cl)s1 -16.3%
Cc1cccc(CNC(=O)c2ccc3oc(=O)n(Cc4ccccc4)c3c2)c1 -20.9%
O=S(=O)(c1ccc(Br)cc1)c1nnn2c1nc(NCc1ccc3c(c1)OCO3)c1sccc12 -8.3%
Cc1ccc(CNC(=O)CCCCCn2c(=O)c3sccc3n(CC(=O)Nc3c(C)cc(C)cc3C)c2=O)cc1 -7.07%
CCCOc1ccc(CNC(=O)CCCn2nc(C)c3sc4ccccc4c3c2=O)cc1 -15.9%
CCCSc1ncc(Cl)c(C(=O)Nc2c(C(=O)Nc3ccc(OC)cc3)oc3ccccc23)n1 -3.91%
COc1cc(Cl)c(C)cc1NC(=O)Cn1ncc2c1-c1cc(C)ccc1OC2 -21.6%
COc1ccc(C(=O)Nc2nnc(SCc3cc(=O)n4cccc(C)c4n3)s2)cc1 7.15%
CC1CCCN(Cc2nc3c(c(=O)n(C)c(=O)n3C)n2Cc2ccc(Cl)cc2)C1 (stereo unspecified) 12.3%
O=C(Nc1cc(Cl)ccc1Cl)c1cc2nc(-c3ccc4c(c3)OCO4)cc(C(F)(F)F)n2n1 -0.0671%
Cn1nc(C(=O)NCc2ccccc2Cl)c2c1-c1ccccc1S(=O)(=O)C2 -23.7%
CSc1ccc(CNC(=O)C2CCN(c3nc4ccccc4nc3C(F)(F)F)CC2)cc1 10.8%
COc1ccc(Cl)cc1NC(=O)C1CCN(S(=O)(=O)c2ccc3c(c2)CC(C)N3C(C)=O)CC1 (stereo unspecified) -22.6%
Cc1cc(C)cc(NC(=O)CSc2oc(-c3ccco3)nc2S(=O)(=O)c2ccc(Cl)cc2)c1 -60.4%
CCn1nc(-c2ccccc2)c(-c2ccccc2)c(C(=O)Nc2nc(C)c(C(C)=O)s2)c1=O -30.7%
CCC(=O)N1CCc2cc(CNC(=O)c3ccc(OC)cc3)ccc21 -12.5%
CCCCn1cc(S(=O)(=O)c2ccc(C)c(C)c2)c(=O)c2cc(F)c(N(CC)CC)cc21 -3.39%
COc1ccc(-c2nc(CN3CCC(C(=O)NCCc4ccccc4)CC3)c(C)o2)cc1OC -9.65%
Cc1ccc(NC(=O)CSc2nc(=O)n(Cc3ccco3)c3c2CCC3)cc1F -38.9%
Cn1c(=O)c(=O)n(C)c2cc(N3CCCC3)c(NC(=O)c3ccccc3F)cc21 -10.6%
Cc1ccc2c(c1)-c1onc(C(=O)N3CCN(c4cc(Cl)ccc4C)CC3)c1CO2 -11.7%
COC(=O)c1ccccc1NC(=O)c1cc(CN2CCCC2)on1 4.25%
CC1Cc2ccccc2N1S(=O)(=O)c1nnc(NC(=O)c2cccc(F)c2)s1 (stereo unspecified) -93.4%
CCC(=O)N1CCc2cc(CNC(=O)Cc3ccc(F)cc3)ccc21 25.9%
CCOc1ccc(-c2nnc(SCC(=O)Nc3ccc(C)cc3Cl)o2)cc1 -74.7%
Cc1ccc(NC(=O)c2cc(S(=O)(=O)NC3CCCCC3)ccc2F)cc1Cl -28.1%
CCc1nnc(SCC(=O)Nc2cc(OC)ccc2OC)nc1CC -8.89%
CCN(Cc1ccccc1)C(=O)c1cc2c(=O)[nH]c3ccc(C)cc3c2s1 -21.9%
Cc1cccc(Cn2c(COc3ccc(Cl)cc3)nc3ccccc32)c1 -11.5%
Cc1ccc(CCNC(=O)c2cc3n(n2)CCCN(Cc2ccc(C)cc2)C3=O)cc1 -10.3%
CCOc1ccc(S(=O)(=O)N(CC(=O)NCCSc2ccc(C)cc2)c2ccccc2)cc1 -10.2%
Cc1cc2n(n1)CCC(=O)N2Cc1ccc(C(=O)Nc2ccc(F)cc2F)cc1 -16.9%
COc1ccc(-c2nc3scc(CCNC(=O)c4cccc(Br)c4)n3n2)cc1 -12.3%
COc1ccc(NC(=O)c2sc3nc4c(c(-c5ccc(OC)cc5)c3c2N)C(=O)CC(C)(C)C4)cc1 1.43%
Cc1cc(-c2ccc(S(=O)(=O)N3CCN(c4ccc(Cl)cc4)CC3)s2)on1 -18.5%
CCOC(=O)c1ccc(N2C(=O)c3[nH]nc(-c4ccc(OCC)cc4)c3C2c2cccs2)cc1 (stereo unspecified) -37.3%
CCOC(=O)c1ccc(NC(=O)CC2Nc3ccccc3NC2=O)cc1 (stereo unspecified) -16.4%
O=C(Nc1cc(-c2nc3cc(Cl)ccc3o2)ccc1Cl)c1cc([N+](=O)[O-])ccc1N1CCOCC1 5.11%
Cc1ccc(-c2nnc(Nc3ccc(F)cc3)c3ccccc23)cc1S(=O)(=O)N1CCN(C)CC1 14.9% [at 11.5 µM, percent change from vehicle, -100% = no light]
Cc1ccc(CNCc2cccn2-c2nnc(N3CCCC3)s2)cc1 4.61%
